Among all 270,000 compounds or so, about 5,800 (2.1%) were called active. This list was built around the results that the source calls inconclusive (neither active nor inactive); the mix of calls is not that of the screen. Calls come from the whole dose curve; as a rule, active = well fitted inhibition curve with a large enough effect; inconclusive = small, poorly fitted or top-dose-only effect; inactive = flat fitted curve, though single readings scatter. Where the call is inconclusive, the potency comes from a doubtful curve fit.
molecular target: Microtubule-associated protein tau (Homo sapiens) (UniProt P10636); assay: qHTS for Inhibitors of Tau Fibril Formation, Thioflavin T Binding; settings: recombinant tau K18 P301L (four-repeat tau fragment), heparin-induced fibrillization, ThT fluorescence; series mostly up to 57.4 µM; note: nearly all actives have a fitted effect of over 55% in size
Method in brief: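 Heparin-induced (20 uM) aggregation of recombinant human K18 P301L tau, 15 uM unlabeled with 0.24 uM labeled, pH 7 acetate buffer, 6 hr at 37 C with compound. Fibrils quantified by 30 uM ThT fluorescence after 1 hr ambient incubation.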
Potency is the fitted concentration of half-maximal effect; tags give direction and shape of the fitted curve.

Sequence of UniProt P10636 (P10636 whole entry, looked up, the tested form may be a part): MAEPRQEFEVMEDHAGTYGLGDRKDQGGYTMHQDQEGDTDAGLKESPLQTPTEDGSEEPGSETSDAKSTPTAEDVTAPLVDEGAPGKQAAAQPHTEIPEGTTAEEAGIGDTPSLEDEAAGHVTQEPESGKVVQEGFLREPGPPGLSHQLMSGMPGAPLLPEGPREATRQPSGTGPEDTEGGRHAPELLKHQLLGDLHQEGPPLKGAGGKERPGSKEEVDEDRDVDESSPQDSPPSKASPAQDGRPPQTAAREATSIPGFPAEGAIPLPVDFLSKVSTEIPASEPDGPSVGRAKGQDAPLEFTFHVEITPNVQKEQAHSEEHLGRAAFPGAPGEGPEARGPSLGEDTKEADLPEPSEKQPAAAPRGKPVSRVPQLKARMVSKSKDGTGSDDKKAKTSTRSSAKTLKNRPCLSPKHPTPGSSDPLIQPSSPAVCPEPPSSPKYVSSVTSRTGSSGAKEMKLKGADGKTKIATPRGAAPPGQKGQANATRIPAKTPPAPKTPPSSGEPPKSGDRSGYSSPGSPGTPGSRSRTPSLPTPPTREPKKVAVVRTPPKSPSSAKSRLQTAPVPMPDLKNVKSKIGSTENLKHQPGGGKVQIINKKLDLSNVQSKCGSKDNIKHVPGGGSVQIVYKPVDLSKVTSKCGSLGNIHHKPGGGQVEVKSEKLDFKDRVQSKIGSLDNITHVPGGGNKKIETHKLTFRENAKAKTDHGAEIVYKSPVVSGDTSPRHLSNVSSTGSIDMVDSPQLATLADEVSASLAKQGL

Q: For `CCC(C)c1ccc(OCC(=O)Nc2cccc(-c3nc4ncccc4o3)c2)cc1` (configuration not stated), which Potency is on record?
A: inconclusive: 10 µM [inhibitor, partial curve]

Q: For `Cc1ccc(Cn2nnc3c(=O)n(CC(=O)N4CCN(c5ccccc5)CC4)cnc32)cc1`, which Potency is on record?
A: inconclusive: 10 µM [inhibitor, partial curve]

Q: How did the Potency turn out when `Cc1cc(C)c2oc(-c3cccc(NC(=O)c4ccc(Br)o4)c3)nc2c1` was run?
A: inconclusive: 2.82 µM [inhibitor, full curve]

Q: Which Potency does the source give for `COC(=O)C1=C(C)N=C2SC(C#N)=C(N)N2C1c1cccc(OC)c1` (configuration not stated) here?
A: inconclusive: 20 µM [inhibitor, partial curve]

Q: For `C=CCC(C)(NCc1ccccc1)c1ccccc1` (configuration not stated), which Potency is on record?
A: inactive

Q: For `COc1ccc(Br)cc1CNC(=O)Cn1c(=O)c2cccn2c2ccc(F)cc21`, which Potency is on record?
A: inactive

Q: How did the Potency turn out when `COc1cccc(-c2cn3c(n2)sc2cc(C(=O)NC4CCCCCC4)ccc23)c1` was run?
A: inconclusive: 31.6 µM [inhibitor, single point]

Q: How did the Potency turn out when `CCOc1ccc(OCc2ccc(C(=O)N3CCCC(C)C3)cc2)cc1` (configuration not stated) was run?
A: inconclusive: 14.1 µM [inhibitor, partial curve]

Q: `C=C1C2CC[C@]3(CCC4[C@@]5(C)CCC[C@@]4(CN(CCO)C5)[C@@H]3C2)[C@@H]1O` (some centres not stated) was tested. Which Potency did it give?
A: inactive

Q: For `COc1ccc(C(=O)Oc2cccc(/C=N/NC(N)=S)c2)cc1`, which Potency is on record?
A: inconclusive: 31.6 µM [inhibitor, single point]

Q: `COc1cccc(NC(=O)Nc2cc(NC(=O)Nc3cccc(OC)c3)c(C)nc2C)c1` was tested. Which Potency did it give?
A: inactive

Q: `CC(C(=O)O)C1CCC2C3CC=C4CC(O)CC[C@@]4(C)C3CC[C@]12C` (some centres not stated) was tested. Which Potency did it give?
A: inactive

Q: With `N#Cc1cnn(-c2nc3sc4c(c3c(=O)[nH]2)CCCC4)c1N` as the molecule, how does the Potency read?
A: inconclusive: 2.24 µM [inhibitor, full curve]

Q: With `CCC(C)[C@H](NC(=O)Nc1cccc(OC)c1)C(=O)OC` (some centres not stated) as the molecule, how does the Potency read?
A: inactive

Q: With `CCCC(=O)c1ccc(N2CCN(C(=O)c3ccc(Br)cc3)CC2)c(F)c1` as the molecule, how does the Potency read?
A: inconclusive: 31.6 µM [inhibitor, single point]

Q: With `Cc1cc(OCCCn2cnc3ccccc3c2=O)ccc1[N+](=O)[O-]` as the molecule, how does the Potency read?
A: inconclusive: 6.31 µM [inhibitor, partial curve]

Q: `CC(=O)Oc1cc2c(C(=O)NCc3ccncc3)c(C)oc2c2ccccc12` was tested. Which Potency did it give?
A: inconclusive: 28.2 µM [inhibitor, single point]

Q: Which Potency does the source give for `C[C@H](NC(=O)CNC(=O)[C@@H](NC(=O)[C@H](Cc1ccccc1)NC(=O)CNC(=O)CNC(=O)[C@@H](N)Cc1ccccc1)[C@@H](C)O)C(=O)N[C@@H](CCCN=C(N)N)C(=O)N[C@@H](CCCCN)C(=O)N[C@@H](CO)C(=O)N[C@@H](C)C(=O)N[C@@H](CCCN=C(N)N)C(=O)N[C@H](CN)CCCCN` here?
A: inactive

Q: With `O=[N+]([O-])c1ccc2[nH]c3nc4ccccc4nc3c2c1` as the molecule, how does the Potency read?
A: inconclusive: 1.78 µM [inhibitor, full curve]

Q: How did the Potency turn out when `C/C(=N/NS(=O)(=O)c1ccc(F)cc1)c1ccc(NC(=O)c2ccc(C)o2)cc1` was run?
A: inconclusive: 22.4 µM [inhibitor, partial curve]

Q: Which Potency does the source give for `CC1Cc2nc(SCC(=O)Nc3nc4ccccc4s3)n(C)c(=O)c2S1` (configuration not stated) here?
A: inconclusive: 28.2 µM [inhibitor, single point]

Q: For `S=c1[nH]nc(-c2ccccn2)n1/N=C/c1ccc(-c2ccccc2Br)o1`, which Potency is on record?
A: inconclusive: 15.8 µM [inhibitor, partial curve]

Q: With `COC(=O)c1c(NC(=O)CN2CCOCC2)sc2c1CCC(C)C2` (configuration not stated) as the molecule, how does the Potency read?
A: inconclusive: 11.2 µM [inhibitor, partial curve, poor fit]

Q: `CCOC(=O)c1[nH]c2ccccc2c1NC(=O)c1ccccc1OCC` was tested. Which Potency did it give?
A: inconclusive: 15.8 µM [inhibitor, single point]

Q: How did the Potency turn out when `O=C(N/N=C/c1cn(-c2ccccc2)nc1-c1cc2ccccc2o1)c1ccccc1Br` was run?
A: inactive

Q: `O=C(Nc1ccc(N2CCCC2)c(S(=O)(=O)Nc2cccc(C(F)(F)F)c2)c1)c1cccs1` was tested. Which Potency did it give?
A: inactive

Q: `COc1ccc(-n2c(SCC(=O)N3CCN(c4ccccc4)CC3)nc3c(c2=O)SCC3)cc1` was tested. Which Potency did it give?
A: inconclusive: 15.8 µM [inhibitor, partial curve]

Q: How did the Potency turn out when `COc1ccccc1CNC(=O)c1ccccc1NC(=O)c1nsc2ccccc12` was run?
A: inactive

Q: For `CCCn1c(/N=C/c2c[nH]c3ccccc23)nc2ccccc21`, which Potency is on record?
A: inactive

Q: For `O=C(NCC1CCCO1)c1ccc(COc2ccc(F)cc2)o1` (configuration not stated), which Potency is on record?
A: inactive

Q: How did the Potency turn out when `O=S(=O)(Nc1nc2ccccc2nc1N1CCN(c2ccccc2F)CC1)c1ccc(Cl)cc1` was run?
A: inconclusive: 14.1 µM [inhibitor, partial curve]

Q: With `Cc1cc(C(=O)O)sc1C` as the molecule, how does the Potency read?
A: inconclusive: 8.91 µM [inhibitor, partial curve]

Q: `COc1ccc(CCNC(=O)CO/N=C/c2cc3c(cc2Br)OCO3)cc1OC` was tested. Which Potency did it give?
A: inactive

Q: With `CC(=O)N1c2ccc(S(=O)(=O)NCC3CCC(C(=O)NC(C)(C)C)CC3)cc2CC1C` (configuration not stated) as the molecule, how does the Potency read?
A: inactive

Q: `Nc1cc(Cl)nc(N/N=C/c2c(O)ccc3ccccc23)n1` was tested. Which Potency did it give?
A: inconclusive: 15.8 µM [inhibitor, partial curve]

Q: With `COC(=O)[C@@]1(Cc2ccc(F)cc2)[C@H]2c3cc(C(=O)N4CCCC4)n(Cc4c(CO)[nH]cc(C)c4=O)c3C[C@H]2CN1C(=O)c1ccccc1` as the molecule, how does the Potency read?
A: inconclusive: 31.6 µM [inhibitor, single point]

Q: `CCOc1ccc(CCNC(=O)C2CCN(c3ncnc4c3nc3n4CCCCC3)CC2)cc1` was tested. Which Potency did it give?
A: inactive

Q: With `CCCNC(=O)c1ccc2c(c1)N=C(C)c1c(C)ccc(C)c1S2` as the molecule, how does the Potency read?
A: inactive

Q: How did the Potency turn out when `Cc1cccc(N2CCN(C(=O)c3ccc4nc(-c5ccco5)c(-c5ccco5)nc4c3)CC2C)c1` (configuration not stated) was run?
A: inconclusive: 17.8 µM [inhibitor, partial curve]

Q: For `Cc1onc(-c2ccccc2Cl)c1C(=O)Nc1ccc(CN2CCCC2)cc1`, which Potency is on record?
A: inactive

Q: For `Cc1c(C(=O)Nc2ccc3c(c2)OCCO3)sc2nc(-c3ccccc3)cn12`, which Potency is on record?
A: inconclusive: 0.398 µM [inhibitor, full curve, poor fit]

Q: How did the Potency turn out when `CC(C)(C)OC(=O)N1CCC(c2c(C(=O)NCCN3CCC(Cc4ccccc4)CC3)cnn2-c2cccc(Cl)c2)CC1` was run?
A: inconclusive: 7.08 µM [inhibitor, partial curve]

Q: How did the Potency turn out when `CCOc1ccc(-c2nnc(SCC(=O)NC3CCCC3)nc2-c2ccc(OCC)c(OC)c2)cc1OC` was run?
A: inactive

Q: How did the Potency turn out when `COc1cccc(/C=C/C(=O)Nc2ccc3c(c2)OCCO3)c1` was run?
A: inconclusive: 8.91 µM [inhibitor, partial curve]

Q: `Cc1cc(C)c(C)c(OCCCOc2cccc3cccnc23)c1` was tested. Which Potency did it give?
A: inconclusive: 28.2 µM [inhibitor, single point]

Q: How did the Potency turn out when `CC(C)Nc1cc(N2CCCC2)ccc1[N+](=O)[O-]` was run?
A: inconclusive: 7.08 µM [inhibitor, partial curve]

Q: With `O=c1[nH]c2cc3c(cc2cc1CN(Cc1ccc2c(c1)OCO2)Cc1nnnn1CC1CCCO1)OCO3` (configuration not stated) as the molecule, how does the Potency read?
A: inactive

Q: How did the Potency turn out when `O=C(Nc1ccccc1F)c1nc(S(=O)(=O)Cc2ccccc2F)ncc1Cl` was run?
A: inconclusive: 3.98 µM [inhibitor, single point]

Q: How did the Potency turn out when `COc1cc2nc(-c3ccc(Br)o3)oc(=O)c2cc1OC` was run?
A: inconclusive: 35.5 µM [inhibitor, single point]

Q: For `CN(C)c1ccc(Nc2ncnc3c2c(-c2ccccc2)cn3-c2cccc(Cl)c2)cc1`, which Potency is on record?
A: inconclusive: 15.8 µM [inhibitor, partial curve]

Q: `COc1ccc(N2C(=O)C(Cl)=C(Nc3ccccc3O)C2=O)cc1` was tested. Which Potency did it give?
A: active: 10 µM

Q: For `CCn1cc(/C=C(\NC(=O)c2cc(OC)c(OC)c(OC)c2)C(=O)NCCCn2ccnc2)c2ccccc21`, which Potency is on record?
A: inactive

Q: For `N#Cc1c(-c2ccccc2)cc(-c2ccccc2)nc1SCC(O)CS(=O)(=O)Cc1ccc(Cl)cc1` (configuration not stated), which Potency is on record?
A: active: 14.1 µM

Q: With `COc1ccc2c3c1OC1C[C@@H](O)C=C[C@@]31CCN(C)C2` (some centres not stated) as the molecule, how does the Potency read?
A: inactive

Q: With `CC(NC(=O)CSc1nc2c(c(C(F)(F)F)n1)CCc1ccccc1-2)c1ccccc1` (configuration not stated) as the molecule, how does the Potency read?
A: inconclusive: 14.1 µM [inhibitor, partial curve]

Q: With `Cc1ccccc1-c1noc(-c2ccccc2OCC(=O)Nc2cccc([N+](=O)[O-])c2)n1` as the molecule, how does the Potency read?
A: inconclusive: 35.5 µM [inhibitor, single point]

Q: `COc1cc(C2C(Oc3ccccc3C)C(=O)N2Cc2ccc(F)cc2)cc(OC)c1OC` (configuration not stated) was tested. Which Potency did it give?
A: inconclusive: 22.4 µM [inhibitor, single point]

Q: With `Cc1cccc(C)c1NC(=O)Cn1nnc(S(=O)(=O)c2ccccc2)c1N` as the molecule, how does the Potency read?
A: inactive

Q: With `COc1cc(CNC(=O)c2cnc(SC)nc2-c2ccccc2)cc(OC)c1OC` as the molecule, how does the Potency read?
A: inactive

Q: Which Potency does the source give for `Cc1cc(C)c2nc(SCC(=O)NCCN3C(=O)CSC3=O)cc(C)c2c1` here?
A: inactive

Q: How did the Potency turn out when `COc1cc(C2NC(C(=O)O)Cc3c2[nH]c2ccccc32)cc(OC)c1OC` (configuration not stated) was run?
A: inactive

Q: For `COc1cc(-c2nc(S(=O)(=O)c3ccc(C)cc3)c(N3CCOCC3)o2)cc(OC)c1OC`, which Potency is on record?
A: inconclusive: 39.8 µM [inhibitor, partial curve]

Q: Which Potency does the source give for `CCOc1c(Cl)cc(CNc2ccc(N3CCCC3)cc2)cc1OC` here?
A: active: 3.16 µM

Q: Which Potency does the source give for `CC(=O)N(/C=C1\SC(=S)N(c2ccccc2)C1=O)c1ccccc1` here?
A: inconclusive: 31.6 µM [inhibitor, single point]

Q: `O=C(CSc1nc(=O)n(Cc2ccccn2)c2c1CCC2)Nc1ccccc1` was tested. Which Potency did it give?
A: inactive

Q: How did the Potency turn out when `CCCCc1ccc(NC(=O)N[C@@H](CC(C)C)C(=O)O)cc1` was run?
A: inconclusive: 15.8 µM [inhibitor, partial curve, poor fit]

Q: How did the Potency turn out when `COc1ccc(-c2nc3sc(CCNC(=O)c4ccc(Br)o4)c(C)n3n2)cc1` was run?
A: inconclusive: 2.51 µM [inhibitor, full curve]

— PubChem BioAssay AID1460 (National Center for Advancing Translational Sciences (NCATS), 2008)
